The list shows a part of the results. The full chains were built here from the parent and the listed change. Inactive controls read about 0.05.
B1: TEV protease; numbered along this chain (parent)
chain: MGESLFKGPRDYNPISSSICHLTNESDGHTTSLYGIGFGPFIITNKHLFRRNNGTLVVQSLHGVFKVKDTTTLQQHLVDGRDMIIIRMPKDFPPFPQKLKFREPQREERICLVTTNFQTKSMSSMVSDTSCTFPSGDGIFWKHWIQTKDGQCGSPLVSTRDGFIVGIHSASNFTNTNNYFTSVPKNFMELLTNQEAQQWVSGWRLNADSVLWGGHKVFMVKPEEPFQPVKEATQL

Variants of: B1
Assay: raw area under fraction-flipped curve 0-4 h after induction (AUC4h, not background-subtracted), DNA-recorder readout of cleavage of the substrate (dimensionless); higher = more cleavage of the substrate by the protease variant
Settings: temperature: 34 °C; time window: 0-4 h after rhamnose induction
Experimental: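 In vivo DNA recorder in E. coli TOP10(DE3) ΔrhaA at 34 °C. Each TEVp single-site mutant (parent TEVp 0) is paired with a single-site variant of the 7-mer TEVs (canonical ENLYFQ|S). The substrate sits between flexible linkers in a Bxb1-sfGFP-TEVs-SsrA fusion, so cleavage stabilises Bxb1 and speeds flipping of a recombination array, read by NGS. The value is the raw area under the fraction-flipped curve over 0-4 h after rhamnose induction (AUC4h), with ≥20 reads per time point. It is not background-subtracted; inactive controls average about 0.047.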
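Note: Bxb1 expression induced with 0.2% (w/v) L-rhamnose at OD600 near 0.5, cultures sampled hourly, flipped fraction per protease–substrate barcode pair counted by paired-end Illumina sequencing.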

Row | Variant | area with substrate ENLCFQS | area with substrate ENLDFQS | area with substrate ENLEFQS | area with substrate ENLFFQS | area with substrate ENLHFQS | area with substrate ENLKFQS | area with substrate ENLNFQS | area with substrate ENLQFQS | area with substrate ENLSFQS | area with substrate ENLWFQS | area with substrate ENLIFQS | area with substrate ENLPFQS | area with substrate ENLVFQS | area with substrate ENLLFQS | area with substrate ENLRFQS | area with substrate ENLGFQS | area with substrate ENLMFQS
1 | MGESLFKGPRDYNPISSSICHLTNESDGHTTSLYGIGFGPFIITNKHLFRRNNGTLVVQSLHGVFKVKDTTTLQQHLVDGRDMIIIRMPKDFPPFPQKLKFREPQREERICLVTTNLQTKSMSSMVSDTSCTFPSGDGIFWKHWIQTKDGQCGSPLVSTRDGFIVGIHSASNFTNTNNYFTSVPKNFMELLTNQEAQQWVSGWRLNADSVLWGGHKVFMVKPEEPFQPVKEATQL [F117L] | 0.0694 | 0.0857 | 0.0528 | 0.0714 | 0.0623 | 0.0751 | 0.0621 | 0.0645 | 0.0721 | 0.081 |  |  |  |  |  |  | 
2 | MGESLFKGPRDYNPISSSICHLTNESDGHTTSLYGIGFGPFIITNKHLFRRNNGTLVVQSLHGVFKVKDTTTLQQHLVDGRDMIIIRMPKDFPPFPQKLKFREPQREERICLVTTNFQTKSMSSMVSDTSCTFPSGDGIFWKHWIQTKDGQCGSPLVSTMDGFIVGIHSASNFTNTNNYFTSVPKNFMELLTNQEAQQWVSGWRLNADSVLWGGHKVFMVKPEEPFQPVKEATQL [R160M] | 0.0831 |  |  | 0.0776 | 0.0464 |  | 0.0721 |  | 0.059 |  |  |  |  |  |  |  | 
3 | MGESLFKGPRDYNPISSSICHLTNESDGHTTSLYGIGFGPFIITNKHLFRRNNGTLVVQSLHGVFKVKDTTTLQQHLVDGRDMIIIRMPKDFPPFPQKLKFREPQREERICLVTTNFQTKSMSSMVSDTSCTFPSGDRIFWKHWIQTKDGQCGSPLVSTRDGFIVGIHSASNFTNTNNYFTSVPKNFMELLTNQEAQQWVSGWRLNADSVLWGGHKVFMVKPEEPFQPVKEATQL [G138R] | 0.067 |  | 0.064 | 0.0716 | 0.0599 | 0.0805 | 0.0741 |  | 0.0721 |  | 0.065 | 0.0591 | 0.0679 |  |  |  | 
4 | MGESLFKGPRDYNPISSSICHLTNESDGHTTSLYGIGFGPFIITNKHLFRRNNGTLVVQSLHGVFKVKDTTTLQQHLVDGRDMIIIRMPKDFPPFPQKLKFREPQREERICLVTTNFQTKSMSSMVSDTSCTFPSGDHIFWKHWIQTKDGQCGSPLVSTRDGFIVGIHSASNFTNTNNYFTSVPKNFMELLTNQEAQQWVSGWRLNADSVLWGGHKVFMVKPEEPFQPVKEATQL [G138H] | 0.0576 |  | 0.065 | 0.083 |  | 0.0662 | 0.0257 |  | 0.0489 |  |  |  | 0.0528 | 0.0623 |  |  | 
5 | MGESLFKGPRDYNPISSSICHLTNESDGHTTSLYGIGFGPFIITNKHLFRRNNGTLVVQSLHGVFKVKDTTTLQQHLVDGRDMIIIRMPKDFPPFPQKLKFREPQREERICLVTTNFQTKSMSSMVSDTSCTFPSGDGIFWKHWIQTKDGQCGSPLVSTRQGFIVGIHSASNFTNTNNYFTSVPKNFMELLTNQEAQQWVSGWRLNADSVLWGGHKVFMVKPEEPFQPVKEATQL [D161Q] | 0.0569 | 0.0596 | 0.0509 | 0.0537 | 0.0579 | 0.0652 | 0.0552 |  |  | 0.0421 | 0.0641 |  |  | 0.0667 | 0.0504 |  | 
6 | MGESLFKGPRDYNPISSSICHLTNESDGHTTSLYGIGFGPFIITNKHLFRRNNGTLVVQSLHGVFKVKDTTTLQQHLVDGRDMIIIRMPKDFPPFPQKLKFREPQREERICLVTTNFQTKSMSSMVSDTSCTFPSGDGIFWKHWIQTKDCQCGSPLVSTRDGFIVGIHSASNFTNTNNYFTSVPKNFMELLTNQEAQQWVSGWRLNADSVLWGGHKVFMVKPEEPFQPVKEATQL [G150C] | 0.0497 | 0.0627 |  | 0.0706 | 0.0597 | 0.0662 | 0.0597 | 0.0605 | 0.0614 | 0.0459 | 0.0557 | 0.0479 | 0.0487 | 0.068 | 0.0808 | 0.064 | 0.0747
7 | MGESLFKGPRDYNPISSSICHLTNESDGHTTSLYGIGFGPFIITNKHLFRRNNGTLVVQSLHGVFKVKDTTTLQQHLVDGRDMIIIRMPKDFPPFPQKLKFREPQREERICLVTTNFQTKSMSSMVSDTSCTFPSGDGIFWKHWIQTKDGQCGSPLVSTRDGHIVGIHSASNFTNTNNYFTSVPKNFMELLTNQEAQQWVSGWRLNADSVLWGGHKVFMVKPEEPFQPVKEATQL [F163H] | 0.08 | 0.0756 | 0.0619 |  | 0.0621 | 0.0733 | 0.0743 |  |  | 0.0478 |  | 0.0461 | 0.0957 |  |  |  | 
8 | MGESLFKGPRDYNPISSSICHLTNESDGHTTSLYGIGFGPFIITNKHLFRRNNGTLVVQSLHGVFKVKDTTTLQQHLVDGRDMIIIRMPKDFPPFPQKLKFREPQREERICLVTTNFQTKSMSSMVSDTSCTGPSGDGIFWKHWIQTKDGQCGSPLVSTRDGFIVGIHSASNFTNTNNYFTSVPKNFMELLTNQEAQQWVSGWRLNADSVLWGGHKVFMVKPEEPFQPVKEATQL [F133G] | 0.0798 | 0.0725 |  | 0.0736 | 0.0686 | 0.0564 | 0.074 |  | 0.0692 | 0.058 | 0.0811 |  | 0.0917 |  | 0.0721 | 0.0825 | 
9 | MGESLFKGPRDYNPISSSICHLTNESDGHTTSLYGIGFGPFIITNKHLFRRNNGTLVVQSLHGVFKVKDTTTLQQHLVDGRDMIIIRMPKDFPPFPQKLKFREPQREERICLVTTNFQTKSMSSMVSDTSCTFPSGDGIFWYHWIQTKDGQCGSPLVSTRDGFIVGIHSASNFTNTNNYFTSVPKNFMELLTNQEAQQWVSGWRLNADSVLWGGHKVFMVKPEEPFQPVKEATQL [K142Y] | 0.0846 | 0.0597 | 0.065 |  | 0.0611 | 0.0766 | 0.0749 |  | 0.0583 | 0.0657 |  | 0.0565 |  | 0.0862 |  |  | 

— the supplement of paper PMC12217912
